The values below come from paper PMC6919601, “Identification of Plasmodium dipeptidyl aminopeptidase allosteric inhibitors by high throughput screening” (PLoS ONE, 2019).

The whole screen tested about 110,000 compounds, of which about 230 (0.21%) showed an effect of 50% or more. This is one part of the list.
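Further: 30 min substrate incubation versus DMSO and 10 µM JCP410 controls.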

In this experiment the target is DPAP1 (Plasmodium falciparum, UniProt Q8IIJ9). Put plainly: primary screen, percent inhibition; read by cleavage of a fluorogenic dipeptide substrate; higher = more effect of the substance. Further details: species or system P. falciparum D10 trophozoite lysates; single well.
Sequence of DPAP1 (Q8IIJ9 whole entry, looked up): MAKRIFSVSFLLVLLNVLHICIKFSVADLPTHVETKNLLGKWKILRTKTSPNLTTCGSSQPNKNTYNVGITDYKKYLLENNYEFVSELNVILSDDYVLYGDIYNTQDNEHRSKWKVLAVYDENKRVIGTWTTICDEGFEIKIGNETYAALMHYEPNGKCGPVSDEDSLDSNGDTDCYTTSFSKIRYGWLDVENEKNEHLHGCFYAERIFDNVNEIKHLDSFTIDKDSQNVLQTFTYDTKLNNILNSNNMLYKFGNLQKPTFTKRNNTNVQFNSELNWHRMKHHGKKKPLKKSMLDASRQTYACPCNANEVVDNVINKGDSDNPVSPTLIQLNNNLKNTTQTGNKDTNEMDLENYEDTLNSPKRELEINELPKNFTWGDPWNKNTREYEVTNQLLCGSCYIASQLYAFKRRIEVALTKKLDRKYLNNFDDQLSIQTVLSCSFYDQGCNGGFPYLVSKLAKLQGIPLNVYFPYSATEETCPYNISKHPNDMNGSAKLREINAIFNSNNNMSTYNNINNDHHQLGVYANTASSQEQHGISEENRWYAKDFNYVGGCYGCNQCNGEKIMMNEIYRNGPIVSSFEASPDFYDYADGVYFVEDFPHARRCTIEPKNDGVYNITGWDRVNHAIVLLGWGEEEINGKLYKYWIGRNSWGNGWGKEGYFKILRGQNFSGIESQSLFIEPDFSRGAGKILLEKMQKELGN
`COc1cccc(-c2cc(C(=O)Nc3ncccn3)c3ccccc3n2)c1`: the “% Inhibition @ 10 uM” value is reported as -7.62%. `CC(=O)Nc1ccc(C23CC4CC(CC(C4)C2)C3)c(C)c1`: the “% Inhibition @ 10 uM” value is on record as -2.59%. The result for `CCCCN(CC)C(=O)Cc1nc(-c2ccc(OC)cc2)no1` reads -3.74%; that for `O=S(=O)(/N=C(\Oc1ccccc1)c1ccccc1)c1ccc(Br)cc1`, -2.41%; that for `CCOc1c(Br)cc(/C=C2/SC(=O)N(CC(=O)N3CCCC3)C2=O)cc1OC`, -5.54%. For `CCc1cc2c(cc3c(=O)n(CC(=O)NCCCN(CC)CC)nc(CC)n32)s1`, the “% Inhibition @ 10 uM” value was determined as 6.35%. With `CCOc1ccc(NC(=O)CN(c2ccc(Cl)c(C(F)(F)F)c2)S(C)(=O)=O)cc1` the figure was 4.08%. The result for `CC1CCCCN1Cc1nc2ccccc2c(=O)n1-c1ccc(F)cc1` (centres unmarked) reads 0.245%. The result for `CC(C)(C)/C(=C\n1ccnc1)c1ccc(C(F)(F)F)cc1` reads 3.62%; that for `Cc1nnc2c(SCc3ccco3)nc3ccccc3n12`, 0.91%; that for `CCOC(=O)C1=C(N)OC2=C(C(=O)CC(C)(C)C2)C1c1ccc(CC)s1` (centres unmarked), -4.98%.

Turning to `COc1cccc(OC)c1C(=O)Nc1ccccc1-c1ccccc1`, the “% Inhibition @ 10 uM” value turned out to be 0.273%. With `Clc1ccc(OCCN2CCN(c3ncnc4c3cnn4-c3ccccc3)CC2)cc1` the figure was 0.426%. With `COc1ccc(C(=O)N2CCCCC2)cc1S(=O)(=O)NC(C)C` the figure was -7.37%; with `CC1(C)CC(=O)C(/C=N/CCN2CCOCC2)=C(O)C1`, 4.55%; with `O=C(NCC1(c2ccccc2)CCOCC1)c1ccccc1F`, 2.17%.

Regarding `COc1ccc(CC(=O)NCCc2csc3ccc(Cl)cc23)cc1OC`, the “% Inhibition @ 10 uM” value is listed as 0.843%. With `Cc1ccccc1NC(=O)C(C)SCc1ccccc1` (centres unmarked) the figure was -4.48%. As for `Clc1ccc(N2CCN(Cc3cccs3)CC2)cc1`, the “% Inhibition @ 10 uM” value is given as -1.92%.

For the compound `Cc1ccc(Nc2nc(-c3ccccc3O)nc3ccccc23)cc1`, the “% Inhibition @ 10 uM” value is given as 3.53%. With `Cc1ccc(C2C=C(c3ccc(Br)cc3)Nc3ncnn32)cc1` (centres unmarked) the figure was -5.11%; with `CCCNc1cc(C)oc(=O)c1C(=O)CCC`, -5.68%; with `CC(C)(C)C(=O)Nc1nsc(-c2ccccc2)n1`, -4.62%. With `O=S(=O)(O)CCC[n+]1ccc(/C=C/c2c[nH]c3ccccc23)cc1` the figure was -1.18%; with `CCCOc1cc(-n2nc(SC)c(C#N)c2N)nc(SC)n1`, -4.65%; with `CCOc1ccc(-n2nnc(-c3nc(-c4ccc5c(c4)OCO5)no3)c2N)cc1`, -2.76%. Regarding `COc1cc(/C=C(/C#N)C(N)=S)ccc1OCc1ccccc1`, the “% Inhibition @ 10 uM” value is given as -2.89%. As to `CCOc1cc(CN2CCSCC2)ccc1O`, the “% Inhibition @ 10 uM” value is 96.4%.

For `CCCCCC12CCC(O)(CC1)CC2=O`, the “% Inhibition @ 10 uM” value came out at 0.912%.
